# Measured values from paper PMC12481580 (Journal of Medicinal Chemistry, 2025).
# B1: 5-TAMRA-labeled NT(8–13) derivative 19 (peptide)
# peptide: RRPYIA
# modifications: Nα-methyl-Nω-carbamoylated Arg at position 8 with 5-TAMRA attached through the 4-aminobutyl-aminocarbonyl side chain; β,β-dimethyl-L-Tyr at position 11; β-trimethylsilyl-Ala (TMSAla) at position 13
# notes: NT(8–13) derivative printed in three-letter code; Tris(hydrotrifluoroacetate) salt; also called UR-FE093; source: synthetic peptide (17a treated with 5-TAMRA succinimidyl ester, preparative RP-HPLC)
# B2: sulfo-Cy5-labeled NT(8–13) derivative 21 (peptide)
# peptide: RRPYIA
# modifications: Nα-methyl-Nω-carbamoylated Arg at position 8 with sulfo-Cy5 attached through the 4-aminobutyl-aminocarbonyl side chain; β,β-dimethyl-L-Tyr at position 11; β-trimethylsilyl-Ala (TMSAla) at position 13
# notes: NT(8–13) derivative printed in three-letter code; Tris(hydrotrifluoroacetate) salt; also called UR-FE094; source: synthetic peptide (17a treated with sulfo-Cy5 succinimidyl ester, preparative RP-HPLC)
# Columns and labels:
# [1] = stability in human plasma/PBS 1:2 v/v (37 °C); assay type: in vitro ADME; conditions: for proteolytic stability in human plasma (in words): over 48 h; for remaining at 2 h, 80 μM: read-out: % intact compound in plasma after 2 h; for remaining at 6 h, 80 μM: read-out: % intact compound in plasma after 6 h; for remaining at 24 h, 80 μM: read-out: % intact compound in plasma after 24 h; for remaining at 48 h, 80 μM: read-out: % intact compound in plasma after 48 h; for half-life: in vitro, read-out: t 1/2 in human plasma
# [2] = target: neurotensin receptor 1 (NTS1R), endogenous in HT-29 colon carcinoma cells (human (endogenous in HT-29)) (UniProt P30989); test: radioligand binding; competition with [^3H]UR-MK300 at intact HT-29 cells, 23 ± 1 °C, DPBS with 1% BSA and 0.1 mg/mL bacitracin; pIC50 converted to pKi (Cheng-Prusoff)
# [3] = target: T1, human NTS2R in membranes of HEK293T-hNTS2R cells (human, UniProt O95665 1-410); test: radioligand binding; competition with 5 nM [^3H]UR-MK300 at membranes of HEK293T-hNTS2R cells, protein 135 μg/mL; conditions: one partner purified
# T1 construct: Used as membrane preparations, not intact cells; source: HEK293T-hNTS2R cells, membrane preparations
# [4] = human, human blood plasma/PBS 1:2 v/v, human plasma/PBS 1:2 v/v, 37 °C, 80 μM
# [5] = human, human blood plasma/PBS 1:2 v/v, human plasma/PBS 1:2 v/v, 37 °C, 80 μM, 48 h
Molecule,"proteolytic stability in human plasma (in words) ([1]; human plasma, 37 °C)","remaining at 2 h, 80 μM [1, 4]","remaining at 6 h, 80 μM [1, 4]","remaining at 24 h, 80 μM [1, 4]","remaining at 48 h, 80 μM [1, 5]",other results
"CC[C@H](C)[C@H](NC(=O)[C@H](Cc1ccc(O)cc1)NC(=O)[C@@H]1CCCN1C(=O)[C@H](CCCNC(=N)N)NC(=O)[C@H](CCCNC(=N)N)NC)C(=O)N[C@@H](C[Si](C)(C)C)C(=O)O [compound 15, N ^α-Methyl-Arg-Arg-Pro-Tyr-Ile-β-trimethylsilyl-Ala Tris(hydrotrifluoroacetate)]",moderate proteolytic stability,83 ± 1%,80 ± 1%,65 ± 1%,~50%,–
"CC[C@H](C)[C@H](NC(=O)[C@@H](NC(=O)[C@@H]1CCCN1C(=O)[C@H](CCCNC(=N)N)NC(=O)[C@H](CCCNC(N)=NC(=O)NCCCCN)NC)C(C)(C)c1ccc(O)cc1)C(=O)N[C@@H](C[Si](C)(C)C)C(=O)O [17a, N ^α-Methyl-N ^ω-[(4-aminobutyl)aminocarbonyl]Arg-Arg-Pro-β,β-dimethyl-L-Tyr-Ile-β-trimethylsilyl-Ala Tetrakis(hydrotrifluoroacetate)]",high proteolytic stability,> 99%,> 99%,> 99%,> 99%,–
Lys-Lys-Pro-Tyr-Ile-β-trimethylsilyl-Ala (6) (peptide),–,–,–,–,–,pKi [2]: 10.3
"CC[C@H](C)[C@H](NC(=O)[C@@H](NC(=O)[C@@H]1CCCN1C(=O)[C@H](CCCNC(=N)N)NC(=O)[C@H](CCCNC(N)=NC(=O)NCCCCNC(=O)c1ccc(-c2c3ccc(=[N+](C)C)cc-3oc3cc(N(C)C)ccc23)c(C(=O)[O-])c1)NC)C(C)(C)c1ccc(O)cc1)C(=O)N[C@@H](C[Si](C)(C)C)C(=O)O [compound 19, N ^α-Methyl-N ^ω-{[4-(N-{1-carboxylato[2-(6-(dimethylamino)-3-(dimethyliminio))-3H-xanthen-9-yl]phen-5-yl}carbonyl)-aminobutyl]aminocarbonyl}Arg-Arg-Pro-β,β-dimethyl-L-Tyr-Ile-β-trimethylsilyl-Ala Tris(hydro-trifluoroacetate)]",high proteolytic stability,> 99%,95 ± 2%,93 ± 2%,–,"half-life ([1]; human blood plasma/PBS 1:2 v/v, human plasma): > 2880 min"
"CC[C@H](C)[C@H](NC(=O)[C@H](Cc1ccc(O)cc1)NC(=O)[C@@H]1CCCN1C(=O)[C@H](CCCNC(=N)N)NC(=O)[C@@H](N)CCCNC(=N)N)C(=O)N[C@@H](CC(C)C)C(=O)O [NT(8–13), reference compound]",very low plasma stability,< 1%,< 1%,–,–,"remaining at 10 min, 80 μM ([1]; human, human blood plasma/PBS 1:2 v/v, human plasma/PBS 1:2 v/v, 37 °C, 80 μM, 10 min, read-out: % intact compound in plasma after 10 min): 17 ± 1%; remaining at 0.5 h, 80 μM ([1]; human, human blood plasma/PBS 1:2 v/v, human plasma/PBS 1:2 v/v, 37 °C, 80 μM, 30 min, read-out: % intact compound in plasma after 30 min): < 1%"
"CC[C@H](C)[C@H](NC(=O)[C@@H](NC(=O)[C@@H]1CCCN1C(=O)[C@H](CCCNC(=N)N)NC(=O)[C@H](CCCNC(=N)NC(=O)NCCCCNC(=O)CCCCCN1\C(=C/C=C/C=C/C2=[N+](CCCCS(=O)(=O)[O-])c3ccccc3C2(C)C)C(C)(C)c2cc(S(=O)(=O)O)ccc21)NC)C(C)(C)c1ccc(O)cc1)C(=O)N[C@@H](C[Si](C)(C)C)C(=O)O [compound 21, N ^α-Methyl-N ^ω-{[4-(N-{6-3H-[2-(5–3H-(1-(4-sulfonatobutyl)-3,3-dimethyl)indol-2-ylidenepent-1,3-dienyl)-3,3-dimethyl-5-sulfo]indol-1-ium-1-yl}hexanoyl)-aminobutyl]aminocarbonyl}Arg-Arg-Pro-β,β-dimethyl-L-Tyr-Ile-β-trimethylsilyl-Ala Tris(hydrotrifluoroacetate)]",high proteolytic stability,97 ± 1%,93 ± 1%,90 ± 1%,90 ± 2%,"metabolised at 48 h ([1]; human blood plasma/PBS 1:2 v/v, human plasma, 48 h, attributed to adsorption to the vessel, read-out: apparent degradation after 48 h): 10%; half-life ([1]; human plasma): > 2880 min"
B1,–,–,–,–,–,Ki [3]: 0.78 nM
B2,–,–,–,–,–,Ki [3]: 0.75 nM

# Where two headings read alike, the source gives them in different places.
